# Measured values published in PubChem BioAssay AID504333 (National Center for Advancing Translational Sciences (NCATS), 2011).
# The campaign covered roughly 360,000 compounds. About 16,000 (4.4%) were called active. Inconclusive results, whose numbers are uncertain, are shown with a selection of clear calls. Calls come from the whole dose curve; as a rule, active = well fitted inhibition curve with a large enough effect; inconclusive = small, poorly fitted or top-dose-only effect; inactive = no such curve, though single readings can be large or run the other way. Where the call is inconclusive, the potency comes from a doubtful curve fit.
# Target: Bromodomain adjacent to zinc finger domain protein 2B (Homo sapiens) (UniProt Q9UIF8)
# UniProt Q9UIF8, sequence (Q9UIF8 whole entry, looked up, the tested form may be a part): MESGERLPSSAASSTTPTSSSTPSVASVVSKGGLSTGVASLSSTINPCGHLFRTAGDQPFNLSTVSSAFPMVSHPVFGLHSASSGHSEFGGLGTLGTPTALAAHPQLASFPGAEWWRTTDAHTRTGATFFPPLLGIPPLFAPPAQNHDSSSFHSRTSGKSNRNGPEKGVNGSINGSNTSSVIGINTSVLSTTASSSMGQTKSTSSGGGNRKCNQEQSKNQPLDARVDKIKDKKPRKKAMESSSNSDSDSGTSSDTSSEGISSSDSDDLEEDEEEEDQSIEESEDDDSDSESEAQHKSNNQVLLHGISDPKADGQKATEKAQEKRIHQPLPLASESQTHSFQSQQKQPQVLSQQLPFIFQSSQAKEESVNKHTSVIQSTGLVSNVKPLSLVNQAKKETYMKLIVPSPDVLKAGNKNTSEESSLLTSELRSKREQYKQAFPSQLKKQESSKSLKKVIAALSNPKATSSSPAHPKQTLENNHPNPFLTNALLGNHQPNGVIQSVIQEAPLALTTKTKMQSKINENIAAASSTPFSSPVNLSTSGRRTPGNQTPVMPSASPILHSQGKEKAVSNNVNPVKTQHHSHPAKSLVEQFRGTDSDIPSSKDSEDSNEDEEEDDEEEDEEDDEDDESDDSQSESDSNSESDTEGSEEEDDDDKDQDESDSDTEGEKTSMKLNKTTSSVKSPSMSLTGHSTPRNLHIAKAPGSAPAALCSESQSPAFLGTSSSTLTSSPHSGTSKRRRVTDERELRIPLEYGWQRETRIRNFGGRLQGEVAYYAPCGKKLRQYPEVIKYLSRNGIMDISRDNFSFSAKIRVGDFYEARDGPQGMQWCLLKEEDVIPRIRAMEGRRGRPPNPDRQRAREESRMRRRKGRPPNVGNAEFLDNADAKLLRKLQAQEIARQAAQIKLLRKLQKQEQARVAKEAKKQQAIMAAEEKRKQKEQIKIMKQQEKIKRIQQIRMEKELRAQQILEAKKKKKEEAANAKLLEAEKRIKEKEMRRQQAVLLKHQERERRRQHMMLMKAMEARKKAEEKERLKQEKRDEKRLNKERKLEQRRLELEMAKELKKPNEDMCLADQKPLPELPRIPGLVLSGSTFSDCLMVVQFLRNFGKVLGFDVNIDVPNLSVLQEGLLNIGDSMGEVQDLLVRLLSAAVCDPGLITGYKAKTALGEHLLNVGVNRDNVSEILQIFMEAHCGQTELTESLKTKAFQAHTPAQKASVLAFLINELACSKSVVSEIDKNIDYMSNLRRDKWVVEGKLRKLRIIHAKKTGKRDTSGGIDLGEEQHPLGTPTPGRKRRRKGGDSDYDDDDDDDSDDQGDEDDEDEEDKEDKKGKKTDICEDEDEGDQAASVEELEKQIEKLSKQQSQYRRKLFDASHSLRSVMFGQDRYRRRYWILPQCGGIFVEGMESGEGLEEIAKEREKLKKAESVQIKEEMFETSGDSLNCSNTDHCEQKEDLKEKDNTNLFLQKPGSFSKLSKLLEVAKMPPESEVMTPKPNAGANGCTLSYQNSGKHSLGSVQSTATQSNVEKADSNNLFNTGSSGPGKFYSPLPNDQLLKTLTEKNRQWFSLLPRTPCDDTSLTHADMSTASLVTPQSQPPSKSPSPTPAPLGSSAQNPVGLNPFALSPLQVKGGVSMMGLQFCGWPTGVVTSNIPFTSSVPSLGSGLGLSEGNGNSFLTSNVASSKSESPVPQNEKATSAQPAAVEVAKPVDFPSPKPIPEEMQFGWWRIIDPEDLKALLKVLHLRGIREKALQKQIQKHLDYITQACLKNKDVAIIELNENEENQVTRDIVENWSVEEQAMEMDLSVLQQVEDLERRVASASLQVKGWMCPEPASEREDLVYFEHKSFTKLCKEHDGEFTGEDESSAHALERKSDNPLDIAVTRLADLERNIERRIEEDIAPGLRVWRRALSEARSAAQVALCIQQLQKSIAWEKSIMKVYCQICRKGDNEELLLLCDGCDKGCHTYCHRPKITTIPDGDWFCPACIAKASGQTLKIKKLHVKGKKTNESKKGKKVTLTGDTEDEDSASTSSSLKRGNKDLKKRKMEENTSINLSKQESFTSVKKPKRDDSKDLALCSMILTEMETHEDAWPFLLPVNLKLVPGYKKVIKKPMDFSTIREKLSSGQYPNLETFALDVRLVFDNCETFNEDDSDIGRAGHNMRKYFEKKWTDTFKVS
# Test: qHTS Assay for Inhibitors of BAZ2B; note: nearly all actives have a fitted effect of over 60% in size
# Details: AlphaScreen BAZ2B-H3K14Ac peptide displacement; series mostly up to 114 µM
# Summary of the method: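 BAZ2B 50 nM plus b-H3(5-23)K14Ac 50 nM, PBS pH 7.4/0.01% Tween-20, 30 min RT; compound added (max 110 uM), 30 min RT; streptavidin donor/Ni-chelate acceptor beads 10 ug/mL final, 20 min dark; AlphaScreen read.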
# Potency is the fitted concentration of half-maximal effect; tags give direction and shape of the fitted curve.
row,SMILES,Potency
1,CCCCNc1cc(NC(C)=O)cc2cc(OC)c(OC)cc12,inactive
2,COc1ccc(-c2cc(C)no2)cc1S(=O)(=O)NCCc1ccco1,"inconclusive: 63.1 µM [inhibitor, partial curve, poor fit]"
3,COc1ccc([C@@H](C)NC(=O)CCc2nnc(-c3cc(C)on3)o2)cc1,inactive
4,CC(=O)Nc1ccc(S(=O)(=O)N(C)c2ccc(OCC(=O)OCC(=O)NCc3ccco3)cc2)cc1,"inconclusive: 50.1 µM [inhibitor, partial curve]"
5,COc1ccc(C2CC(c3cc(OC)ccc3OC)n3nnnc3N2)cc1 (centres undefined),"inconclusive: 79.4 µM [inhibitor, single point]"
6,COc1cc(OC)cc(C(=O)Nc2ccc3c(c2)n(C)c(=O)n3C)c1,"inconclusive: 50.1 µM [inhibitor, partial curve]"
7,O=C(Nc1nnc(-c2ccc(F)cc2)o1)c1ccco1,active: 50.1 µM
8,O=C(Cc1ccccc1)Nc1cccc(N2C(=O)C=CC2=O)c1,"inconclusive: 89.1 µM [inhibitor, single point]"
9,COc1ccc(Nc2c(-c3ccsc3)nc3nc(C)cc(C)n23)cc1,"inconclusive: 50.1 µM [inhibitor, partial curve]"
10,O=C(NC1CCCCC1)C(c1ccncc1)N(CC1CCCO1)C(=O)C(F)(F)F (centres undefined),"inconclusive: 89.1 µM [inhibitor, single point]"
11,CCCCCCCSc1nnc(N)s1,inactive
12,CCOc1ccc(CC(C(=O)NN)C(=O)NN)cc1CN(C)C,"inconclusive: 89.1 µM [inhibitor, single point]"
13,Cc1cc(C(=O)O)ccc1-c1ccc(/C=C2\NC(=O)N(Cc3ccccc3Cl)C2=O)o1,active: 44.7 µM
14,Clc1ccccc1C1CC(c2ccccc2)=Nc2ccccc2N1 (centres undefined),"inconclusive: 31.6 µM [inhibitor, partial curve]"
15,Cc1cc(C)c2sc(N(CCCN(C)C)C(=O)c3ccc(S(=O)(=O)N(C)Cc4ccccc4)cc3)nc2c1,"inconclusive: 14.1 µM [inhibitor, full curve]"
16,Cc1ccc(Nc2ccc(N)cc2S(=O)(=O)O)cc1,"inconclusive: 44.7 µM [inhibitor, partial curve]"
17,COc1ccc(-c2nc(C#N)c(NCCc3ccccc3)o2)cc1OC,active: 44.7 µM
18,CCCC(=O)Nc1nc2nc(-c3ccccc3)cc(=O)n2[nH]1,inactive
19,COc1ccc(Cl)cc1NC(=O)CSc1nnc(Cc2cccn2C)n1-c1ccc(F)cc1,"inconclusive: 44.7 µM [inhibitor, partial curve]"
20,Cn1c(=O)c2c(nc(SCc3cccnc3)n2Cc2ccc(F)cc2)n(C)c1=O,"inconclusive: 89.1 µM [inhibitor, single point]"
21,CCC(=O)c1cn(CC(=O)O)c2ccccc12,"inconclusive: 79.4 µM [inhibitor, single point]"
22,Cc1ccc2c(=O)cc(C(=O)Nc3c(C(=O)c4ccc(F)cc4)oc4ccccc34)oc2c1C,inactive
23,O=C(Nc1nnc(S(=O)(=O)N2CCCCCC2)s1)c1ccc(Cl)cc1,"inconclusive: 3.55 µM [inhibitor, full curve]"

row,SMILES,Potency
1,Cc1cc(N=NC(=O)c2ccccc2)ccc1O,"inconclusive: 79.4 µM [inhibitor, single point]"
2,Cn1cnc(S(=O)(=O)N2CCC(C(=O)Nc3ccc(Cl)c(C(F)(F)F)c3)CC2)c1,inactive
3,COc1ccccc1N1CCN(C(=O)CNS(=O)(=O)c2ccc(Br)s2)CC1,"inconclusive: 89.1 µM [inhibitor, single point]"
4,Cc1c(Cl)cnc(NC(=O)COC(=O)Cc2coc3ccc4ccccc4c23)c1Cl,"inconclusive: 25.1 µM [inhibitor, full curve, poor fit]"
5,CN(C)S(=O)(=O)c1cccc(NC(=O)COC(=O)/C=C/c2ccc3c(c2)OCO3)c1,inactive
6,CN(C)S(=O)(=O)c1cccc(NC(=O)c2ccc(N3CCOCC3)c([N+](=O)[O-])c2)c1,"inconclusive: 79.4 µM [inhibitor, single point]"
7,C/C(=C\C(=O)c1ccc(Cl)cc1Cl)N(C)C,"inconclusive: 79.4 µM [inhibitor, partial curve]"
8,CCC(=O)NC(=S)NNC(=O)c1ccccc1[N+](=O)[O-],"inconclusive: 50.1 µM [inhibitor, partial curve]"
9,Clc1ccc(-n2cccc2)cn1,"inconclusive: 79.4 µM [inhibitor, single point]"
10,COc1ccc(C(=O)NCc2nnc(SCC(=O)NC3CCCCC3)n2C)cc1,inactive
11,CC(N)C12CC3CC(CC(O)(C3)C1)C2 (centres undefined),"inconclusive: 12.6 µM [inhibitor, single point]"
12,Cc1ccc(OCC(=O)Nc2ccc3nn(-c4ccc(C)cc4)nc3c2)cc1,inactive
13,O=C(CCNC(=O)c1ccc(Br)cc1)Nc1ccccc1N1CCOCC1,"inconclusive: 79.4 µM [inhibitor, single point]"
14,Cc1cc(C(=O)COc2ccc3ccc(=O)oc3c2)c(C)n1C,"inconclusive: 79.4 µM [inhibitor, single point]"
15,COc1cc(-c2nc3ccccn3c2/N=C/c2ccc(F)cc2)ccc1O,"inconclusive: 79.4 µM [inhibitor, single point]"
16,CC(=O)Nc1ccc(S(=O)(=O)Nc2cccc3cccnc23)cc1,"inconclusive: 89.1 µM [inhibitor, single point]"
17,COc1ccc(-n2ccn(CC(=O)Nc3ccc(C)cc3C)c(=O)c2=O)cc1,inactive
18,CCCc1nnc(NC(=O)C(CC)Sc2nnc3c4ccccc4n(C)c3n2)s1 (centres undefined),"inconclusive: 89.1 µM [inhibitor, single point]"
19,Nc1ccc2nc(NC(=O)C3CCCCC3)sc2c1,"inconclusive: 79.4 µM [inhibitor, partial curve]"
20,Cc1cc(C)c2cc(C#N)c(SCC(=O)NCc3ccco3)nc2c1,"inconclusive: 89.1 µM [inhibitor, single point]"
21,O=C1Nc2ccccc2C(=O)N2[C@H](c3ccccc3)[C@@H]3C(=O)N(Cc4ccccc4)C(=O)[C@@H]3[C@H]12,"inconclusive: 79.4 µM [inhibitor, single point]"
22,COC(=O)c1cc(=O)n(CCc2ccccc2F)c(=Nc2ccc(F)c(Cl)c2)s1,"inconclusive: 56.2 µM [inhibitor, partial curve, poor fit]"
23,O=S(=O)(c1ccc(Cl)cc1)N1CCC(n2cccc2)CC1,"inconclusive: 50.1 µM [inhibitor, partial curve]"

row,SMILES,Potency
1,COc1ccc(Cl)cc1NC(=S)NCc1ccco1,"inconclusive: 89.1 µM [inhibitor, single point]"
2,O=C(CNc1cc(S(=O)(=O)N2CCOCC2)ccc1NCC1CCCO1)Nc1ccc(F)c(F)c1 (centres undefined),"inconclusive: 50.1 µM [inhibitor, partial curve]"
3,CCc1ccc2c(c1)c(N=NC1=NC(=O)CS1)c(O)n2CC,active: 50.1 µM
4,COc1cccc(-c2ccc(-c3noc(-c4cccs4)n3)c(OC)n2)c1,inactive
5,Fc1ccc(N2CCN(c3ncnc4[nH]ncc34)CC2)cc1,inactive
6,CCOc1ccccc1C(=O)NCC(=O)OCC(=O)c1ccc2c(c1)OCCO2,"inconclusive: 79.4 µM [inhibitor, single point]"
7,c1ccc(-n2ncc3c(NCCN4CCCCC4)ncnc32)cc1,"inconclusive: 79.4 µM [inhibitor, single point]"
8,COc1ccc(/C=C/c2n[nH]c(=O)c(C#N)c2C)cc1,inactive
9,N#CC1=C(N)Oc2cc(N)ccc2C1c1ccccc1Cl (centres undefined),"inconclusive: 79.4 µM [inhibitor, single point]"
10,Cn1c(=O)c2c(nc(NCc3cccnc3)n2Cc2ccc(Cl)cc2)n(C)c1=O,"inconclusive: 79.4 µM [inhibitor, single point]"
11,CC(C)OCCCNC(=O)CN1C(=O)c2ccccc2Sc2ncccc21,inactive
12,CCN1CCN(C(=O)CCc2nnc3ccc(N4CCN(c5cccc(OC)c5)CC4)nn23)CC1,"inconclusive: 39.8 µM [inhibitor, partial curve]"
13,COc1ccc(CC(=O)N(C)Cc2cccc(OC)c2OC)cc1S(=O)(=O)N1CCOCC1,"inconclusive: 89.1 µM [inhibitor, single point]"
14,COc1ccc(N2CCN(C(c3ccc(F)cc3)c3sc4nc(-c5ccco5)nn4c3O)CC2)cc1 (centres undefined),active: 39.8 µM
15,COC(=O)c1ccc(NC(=O)CCS(=O)(=O)c2ccc(C)cc2)cc1,inactive
16,CCOc1cccc(=O)c2c(C)n(Cc3ccccc3)c(C)c12,"inconclusive: 44.7 µM [inhibitor, partial curve]"
17,O=C1Nc2cc(C(=O)NCCCN3CCOCC3)ccc2S/C1=C/c1cccc(Cl)c1,"inconclusive: 12.6 µM [inhibitor, partial curve]"
18,CC(=O)c1ccc(N2CCN(CC3CCCCC3)CC2)cc1,"inconclusive: 89.1 µM [inhibitor, single point]"
19,CC(Cc1n[nH]c(=S)o1)c1ccccc1 (centres undefined),"inconclusive: 79.4 µM [inhibitor, single point]"
20,O=C(COc1ccc(Br)cc1)NNC(=O)c1ccc(-n2cncn2)c([N+](=O)[O-])c1,inactive
21,CC1(C)CC(=O)C(C(=O)/C=C/c2ccco2)C(=O)C1,"inconclusive: 89.1 µM [inhibitor, single point]"
22,Cc1ccc(/C=C/C(=O)Nc2cccc3cccnc23)o1,"inconclusive: 79.4 µM [inhibitor, single point]"
23,NNC(=S)NC1CCCCCCCCCCC1,active: 31.6 µM
